The full ranking holds about 33,000 sequences; the median of “E-score (-0.5 to 0.5)” is about -0.035, and the highest 2% start at about 0.35. This is one part of the list.
What follows are sequences tested against T1, Pdr3 (UniProt P33200) (assay: PBM E-score (8-mer binding enrichment) (E-score (-0.5 to 0.5)); higher = stronger / more preferred TF binding; most listed sequences are background and not binding sites). Settings: protein concentration: 200 nM; construct: GST-full length.
T1 sequence: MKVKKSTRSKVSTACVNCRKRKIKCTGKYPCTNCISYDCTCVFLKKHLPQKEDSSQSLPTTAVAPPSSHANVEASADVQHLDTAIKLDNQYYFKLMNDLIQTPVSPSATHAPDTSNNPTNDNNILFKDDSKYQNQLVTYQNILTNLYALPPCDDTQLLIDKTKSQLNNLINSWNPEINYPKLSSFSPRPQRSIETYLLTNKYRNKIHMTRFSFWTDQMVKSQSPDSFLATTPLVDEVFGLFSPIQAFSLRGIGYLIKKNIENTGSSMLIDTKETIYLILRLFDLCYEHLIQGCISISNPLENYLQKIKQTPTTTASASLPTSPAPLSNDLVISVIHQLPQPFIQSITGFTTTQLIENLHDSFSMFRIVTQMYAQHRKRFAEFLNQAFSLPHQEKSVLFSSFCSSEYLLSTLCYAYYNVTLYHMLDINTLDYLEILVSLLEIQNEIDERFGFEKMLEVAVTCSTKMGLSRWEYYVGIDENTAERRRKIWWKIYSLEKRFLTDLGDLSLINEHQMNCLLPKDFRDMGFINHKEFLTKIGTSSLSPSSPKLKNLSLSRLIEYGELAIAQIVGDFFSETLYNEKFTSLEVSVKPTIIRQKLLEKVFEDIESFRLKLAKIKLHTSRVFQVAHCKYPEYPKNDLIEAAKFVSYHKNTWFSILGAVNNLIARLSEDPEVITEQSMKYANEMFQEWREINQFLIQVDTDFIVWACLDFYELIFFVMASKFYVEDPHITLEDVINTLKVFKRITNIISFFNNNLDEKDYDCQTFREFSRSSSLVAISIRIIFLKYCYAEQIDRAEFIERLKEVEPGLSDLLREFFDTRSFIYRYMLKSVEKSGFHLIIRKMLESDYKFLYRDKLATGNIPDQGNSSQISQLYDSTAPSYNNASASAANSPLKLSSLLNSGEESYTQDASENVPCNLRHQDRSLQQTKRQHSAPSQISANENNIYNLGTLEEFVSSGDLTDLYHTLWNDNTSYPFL
Method in brief: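 Each ungapped eight-base word and its reverse complement, pooled, received an E-score from the Universal PBM Analysis Suite. Underlying scans, normalised with masliner, recorded fluorescent anti-GST bound to GST-tagged yeast transcription factors. These were applied at about 100-200 nM to universal all-10-mer Agilent arrays double-stranded by primer extension.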

Sequence | PBM E-score
CGTTAGAC | -0.0556
ATTCGCAC | -0.00251
GATAGAGA | -0.0875
ACCGGAAT | 0.411
GAACGGAA | 0.469
CAAATGAG | -0.245
CCCTGGAC | -0.00074
GCCTATTA | -0.02
CACGACAG | 0.0118
CATGAACA | -0.0468
AATTCTCC | 0.219
GCCACCCC | -0.0447
ACAGACGT | -0.0312
CACATATA | -0.0666
CATTGATA | 0.138
TGAAGTCA | -0.0672
ATACCCGC | 0.289
CTACGGGA | 0.148
AGTCGAAG | -0.213
ACCTCGCT | 0.149
ACCGCACT | 0.0041
CCTATTTA | 0.0255
AGGAACCC | 0.00054
AATAACAG | 0.00463
CAACAGGA | -0.249

Sequence | PBM E-score
TATATAGA | 0.0122
AGGTGCGG | 0.182
GGTGCACA | -0.158
ATCGAAAG | -0.0034
AAGACAGA | -0.0151
AAACATTT | 0.00814
GTTCGAAC | 0.0635
CTTAAGGA | -0.142
ATGCTCTC | -0.108
ACGTGGCG | -0.149
AAGTTAGC | 0.0401
ATATTCCG | 0.426
CGCGGAGC | 0.445
CATAGTGC | 0.0492
GGTTTGAA | -0.0274
GCGGCACC | 0.267
CGCTCTTA | 0.0395
CTGACCCA | -0.288
CCCGTTGC | -0.0103
GCTGCGAC | -0.197
GCAAGTTA | -0.0318
TGTGCACA | -0.106
CAACGTAG | -0.207
ATACGACG | 0.0788
GCAGACGA | 0.0069

Sequence | PBM E-score
CCGTTAGA | 0.158
CGAACAAG | 0.0812
ATTAGAGA | -0.277
GCATGATA | -0.0258
CCAGTCAG | -0.176
ACCACTAA | -0.0372
ACGACAAT | 0.0247
AAGGTGGT | -0.0672
ACACCCGT | 0.0745
GTCCGAAA | 0.264
CGCAAGGA | 0.0382
GGGCTATA | -0.115
AGTGTGTC | 0.00745
CGGCTAGC | 0.0828
TCCCCGCA | 0.271
GGCCAAAC | 0.00739
AGTCTTGG | -0.237
CATTGGCA | -0.15
AACTCACT | -0.181
CACATCGA | -0.151
AAGAACAT | 0.0641
CAAAGTTG | -0.106
AAGGGGAT | -0.00357
ATATTCGC | 0.0776
GTCCGAGA | 0.321

Sequence | PBM E-score
AATCCAGC | 0.00326
GATACCCC | 0.0962
ACTCATCT | -0.18
CAATTCGG | 0.221
CTGGAGAA | -0.315
AGCCCCAA | -0.285
CCACACTA | 0.058
CCTATGTC | -0.0741
ACGCGCAG | -0.172
GAAATCGC | 0.0559
AACTGTTC | 0.135
CCCCCTAG | -0.342
CAGATAGG | -0.173
AGCGATAC | -0.164
CTGAATAC | -0.0551
TCATGCAA | 0.0604
CAGAAAAG | 0.0862
AAATCTCC | 0.0627
AAGTCGAT | -0.0848
CTAATGAG | -0.127
ATGTTACC | 0.0491
CCGCACGA | 0.0638
ATAGCACG | -0.112
AGTGCGCG | 0.0188
GTGATCAA | -0.0371

Sequence | PBM E-score
GTGGACTA | -0.0486
GGCAGGCA | -0.0559
CCTCAAGC | -0.113
AAGCGGTG | -0.266
CAAATAAA | -0.0153
GTGCGGGA | 0.252
ACGCGCCT | -0.0277
CCCATGAC | -0.147
AAGGTATT | 0.0601
AAAACGTT | -0.0804
ACCGGATA | 0.151
CAATAGTC | -0.232
GCCCGTGA | 0.102
GCGAGCCC | 0.0251
AATAGTCG | -0.00883
CGGTAACA | 0.227
CCTAGATA | -0.229
AGCTCATA | 0.0122
ACACAACT | -0.153
AGCATTGA | -0.205
TTCGTAAA | -0.213
AGGGAGCA | -0.112
CTGTAGGA | -0.00933
AAGAGGCG | -0.0913
AGAGCCAC | -0.154

Sequence | PBM E-score
AAGCACTT | -0.0897
GCCTAGCC | -0.0448
CGTGACCA | -0.0378
AGGCTCAT | -0.0553
ACCAGAAA | -0.105
CCCTCCAA | -0.217
ACTATCTG | -0.339
AAGTGCAT | -0.174
GCGTTAAC | -0.108
CTTTATGC | -0.0559
ACATCGAG | -0.295
TTGTAAAA | -0.125
TCGAAGAA | 0.04
ACAGAAAT | -0.0828
ACCTGTAA | -0.179
CCCAGTAA | -0.0462
CCATACAC | 0.00239
AGCGCGAG | -0.0774
AAGCCACG | -0.0153
AAATTGGC | 0.024
AACGGCTG | 0.0388
ATTCGCAG | -0.0389
ACAAGGAG | 0.0247
AAGTTAGA | 0.025
ACAAGATG | -0.102

Sequence | PBM E-score
CGAGATAG | -0.108
TAATCCGA | 0.0593
CTTAAAAG | -0.378
CATGTTAG | -0.306
ATGATTTG | 0.0369
AGCCGGCA | 0.339
AGAGCGAT | -0.147
ATCTCAGG | 0.00088
AGCCAACA | -0.0699
ACCAAAGC | 0.0196
AGGGTGGG | 0.00388
ACGCGTGC | 0.0478
ATCACGTA | -0.0663
GCCACACC | -0.007
ATTTGTAG | -0.179
GCACGTCA | -0.225
CCTACAAC | -0.12
TATTATGA | -0.088
GCCTGCCC | -0.0411
AACCGCGG | 0.457
CTGAGTTA | -0.195
ATTGGATC | 0.0324
CGGGAGGC | 0.112
TGGTACAA | -0.139
ACTAATCC | 0.0746

Sequence | PBM E-score
CACTTTGA | -0.193
CGAATTTA | 0.0465
GCAATGTA | -0.0487
ACCCCTGC | -0.097
TAGGCATA | -0.229
GCATTGGC | -0.309
AAGCGCCT | 0.0078
GAGGGCCC | -0.032
ACGGCCGG | 0.344
TAAGCGAA | -0.0916
AATCTTGC | 0.0152
ACATTTGA | 0.0119
CATAGGCC | 0.028
CTACATAA | -0.236
GTTGCAAC | 0.00318
TATAACCA | -0.0221
CTAAAGTC | -0.143
CCTGGAGC | -0.231
ACTATTAC | 0.0813
TAATTAGA | 0.0699
AATGCCGG | 0.308
ACACGTTC | -0.0023
TGACATCA | -0.0444
GTCAGCAA | -0.201
ACCATCGA | -0.164

Sequence | PBM E-score
AGCCATTA | -0.00061
AAGAAACC | 0.0731
AAAAATAT | 0.0611
GCGATCAC | -0.0291
AAGAGCTA | -0.145
CTTGGCGA | -0.246
AGACCAAC | -0.112
CAAGGATG | -0.163
GGCTCAAA | -0.0861
CCAACCTC | -3e-05
ACTCGCCC | 0.00575
AGTATCTC | 0.12
AAAACATA | -0.0915
GACGGATC | 0.313
AATACGTG | -0.0764
GACTTTGC | 0.00883
CCATTCCC | 0.101
CGTGAACG | -0.107
CTAGGATA | -0.105
